Drawing on the antibiotic and cytotoxicity screens of Wong et al. (2023), this text covers cytotoxicity call and growth inhibition call for 27 molecules.

Some of the results follow.

One assay relates to HSkMC. Put plainly: cytotoxicity call (relative viability < 0.9). The following applies: 10 µM.
The test system of another assay is HepG2. Briefly: cytotoxicity call (relative viability < 0.9). The settings on record: 10 µM.
The test system of another assay is S. aureus RN4220. Put plainly: growth inhibition call (relative growth <= 0.2). The settings on record: 50 µM.

For `O=C(C[C@@H]1CC[C@@H]2[C@H](COC[C@@H](O)CN2C(=O)Nc2cccc(F)c2)O1)NCc1ccccc1Cl`, the cytotoxicity call in the assay with HSkMC and with HepG2 was “inactive” throughout. In the assay on S. aureus RN4220, the growth inhibition call is “inactive”.

With `COc1ccc(S(=O)(=O)Nc2ccc3c(c2)C(=O)N([C@@H](C)CO)C[C@H](C)[C@@H](CN(C)C(=O)NC2CCCCC2)OCCCC[C@@H](C)O3)cc1`, the cytotoxicity call with HSkMC and with HepG2 was “inactive” throughout. The growth inhibition call in the assay with S. aureus RN4220 was “inactive”.

For `C[C@@H]1CN([C@H](C)CO)C(=O)c2cc(NS(=O)(=O)c3ccccc3)ccc2O[C@@H](C)CCCCO[C@H]1CN(C)C(=O)Nc1ccc(F)cc1`, the cytotoxicity call with HSkMC and in the assay with HepG2 was “inactive” in each case. Also, the growth inhibition call in the assay on S. aureus RN4220 is “inactive”.

Turning to `C[C@H]1CN([C@@H](C)CO)C(=O)c2cc(/C=C/c3ccccc3)cnc2O[C@@H]1CN(C)S(=O)(=O)c1cn(C)cn1`, the cytotoxicity call in the assay on HSkMC and in the assay with HepG2 was “inactive” each time. Moreover, the growth inhibition call in the assay with S. aureus RN4220 was “inactive”.

For the molecule `COC(=O)CCCCCCC(=O)N/N=C/[C@H](O)[C@@H](O)[C@H](O)[C@H](O)CO[C@H]1O[C@H](CO)[C@H](O)[C@H](O)[C@H]1O`, the cytotoxicity call in the assay on HSkMC and in the assay with HepG2 was “inactive” in each case. Also, the growth inhibition call in the assay on S. aureus RN4220 was “inactive”.

As to `O=C(C[C@@H]1CC=CC[C@H](NC(=O)OCC2c3ccccc3-c3ccccc32)C(=O)O[C@@H](c2ccccc2)CNC1=O)N[C@@H](CO)Cc1ccccc1`, the cytotoxicity call in the assay with HSkMC is “active”. In addition, the cytotoxicity call with HepG2 is “inactive”. Also, the growth inhibition call in the assay on S. aureus RN4220 was “inactive”.

Take `O=C(O)[C@@H]1C2C=CC3(O2)C1C(=O)N1CCS[C@H]13` (stereo partly specified): the cytotoxicity call in the assay with HSkMC and in the assay on HepG2 was “inactive” throughout. The growth inhibition call in the assay with S. aureus RN4220 is “inactive”.

`COc1ccc(CN(C)C[C@H]2Oc3ccc(NS(=O)(=O)c4c(C)noc4C)cc3CC(=O)N([C@@H](C)CO)C[C@H]2C)cc1`: the cytotoxicity call with HSkMC and in the assay with HepG2 was “inactive” throughout. Also, in the assay on S. aureus RN4220, the growth inhibition call was “inactive”.

On to `C[C@@H](O)[C@@H](O)[C@@H](O)C/C=N/NC(=O)CCCCC(=O)NO`, for which the cytotoxicity call in the assay on HSkMC and in the assay on HepG2 was “inactive” each time. In the assay with S. aureus RN4220, the growth inhibition call was “inactive”.

As for `C[C@H]1CN([C@@H](C)CO)C(=O)c2cccc(NC(=O)NC3CCCCC3)c2O[C@H]1CN(C)Cc1ccc(Cl)c(Cl)c1`, the cytotoxicity call with HSkMC and in the assay with HepG2 was “inactive” in each case. Moreover, the growth inhibition call with S. aureus RN4220 is “inactive”.

`C[C@H]1CCCCO[C@@H](CN(C)C(=O)Nc2ccc(C(F)(F)F)cc2)[C@@H](C)CN([C@@H](C)CO)C(=O)c2cc(NS(=O)(=O)c3ccc(F)cc3)ccc2O1`: the cytotoxicity call in the assay on HSkMC and in the assay with HepG2 was “inactive” in each case. Moreover, the growth inhibition call with S. aureus RN4220 was “inactive”.

With `COc1cccc(S(=O)(=O)N(C)C[C@@H]2Oc3cc(C#CCC(C)C)ccc3S(=O)(=O)N([C@@H](C)CO)C[C@@H]2C)c1`, the cytotoxicity call with HSkMC and in the assay with HepG2 was “inactive” in each case. For the same molecule, in the assay on S. aureus RN4220, the growth inhibition call was “inactive”.

As to `C[C@@H]1CCCCO[C@@H](CN(C)Cc2ccccc2)[C@@H](C)CN([C@H](C)CO)C(=O)c2cc(NS(=O)(=O)c3ccc(F)cc3)ccc2O1`, the cytotoxicity call in the assay on HSkMC and in the assay with HepG2 was “inactive” each time. For the same molecule, the growth inhibition call in the assay with S. aureus RN4220 is “inactive”.

For `C[C@@H]1CN([C@@H](C)CO)S(=O)(=O)c2ccc(Br)cc2O[C@H]1CN(C)S(=O)(=O)c1cccc(F)c1`, the cytotoxicity call in the assay on HSkMC and in the assay with HepG2 was “inactive” throughout. Also, the growth inhibition call in the assay with S. aureus RN4220 is “inactive”.

Take `C[C@H](CO)N1C[C@H](C)[C@@H](CN(C)C(=O)Nc2ccc3c(c2)OCO3)Oc2cc(C#Cc3cccnc3)ccc2S1(=O)=O`: the cytotoxicity call in the assay on HSkMC and with HepG2 was “inactive” each time. Further, the growth inhibition call in the assay with S. aureus RN4220 is “inactive”.

In the case of `COc1cccc(CN2C[C@@H](C)[C@H](OC)CN(C)C(=O)c3cc(NS(=O)(=O)c4cn(C)cn4)ccc3OC[C@H]2C)c1`, the cytotoxicity call with HSkMC and in the assay with HepG2 was “inactive” throughout. Moreover, the growth inhibition call with S. aureus RN4220 is “inactive”.

In the case of `O=C(C[C@@H]1CC[C@@H]2[C@H](COC[C@H](O)CN2C(=O)c2cnccn2)O1)N1CCN(c2ccccc2)CC1`, the cytotoxicity call in the assay on HSkMC and in the assay with HepG2 was “inactive” in each case. For the same molecule, the growth inhibition call with S. aureus RN4220 was “inactive”.

In the case of `Cn1cnc(S(=O)(=O)N2C[C@@H](O)COC[C@H]3O[C@@H](CC(=O)NC4Cc5ccccc5C4)CC[C@@H]32)c1`, the cytotoxicity call with HSkMC and in the assay with HepG2 was “inactive” in each case. The growth inhibition call with S. aureus RN4220 is “inactive”.

Regarding `O=C(N[C@@H](c1ccc2c(c1)OCO2)c1ccccn1)C1CCN(CCOc2ccc(Cl)cc2Cl)CC1`, the cytotoxicity call in the assay on HSkMC and in the assay with HepG2 was “inactive” throughout. The growth inhibition call in the assay on S. aureus RN4220 was “inactive”.

Regarding `C[C@@H]1CN([C@H](C)CO)C(=O)c2cc(NC(=O)C3CC3)ccc2O[C@@H]1CN(C)S(=O)(=O)c1ccc(F)cc1`, the cytotoxicity call in the assay with HSkMC and in the assay with HepG2 was “inactive” throughout. Besides, in the assay with S. aureus RN4220, the growth inhibition call was “inactive”.

As to `C[C@@H]1CCCCO[C@@H](CN(C)S(=O)(=O)c2ccccc2)[C@H](C)CN([C@H](C)CO)C(=O)c2cc(NC(=O)C3CCCCC3)ccc2O1`, the cytotoxicity call in the assay with HSkMC and with HepG2 was “inactive” throughout. Besides, the growth inhibition call in the assay with S. aureus RN4220 was “inactive”.

For the molecule `COc1ccc(S(=O)(=O)N(C)C[C@H]2Oc3ccc(NS(=O)(=O)c4cccs4)cc3CC(=O)N([C@@H](C)CO)C[C@@H]2C)cc1`, the cytotoxicity call in the assay with HSkMC and in the assay on HepG2 was “inactive” in each case. In the assay with S. aureus RN4220, the growth inhibition call was “inactive”.

`CCS(=O)(=O)N1C[C@]2(C1)CN([C@H](CO)c1c2c2ccc(cc2n1C)OC)C(=O)c1ccc(cc1)F`: the cytotoxicity call in the assay with HSkMC and in the assay with HepG2 was “inactive” in each case. In addition, the growth inhibition call in the assay with S. aureus RN4220 was “inactive”.

On to `C[C@@H]1CCCCO[C@H](CN(C)Cc2ccccc2)[C@@H](C)CN([C@@H](C)CO)C(=O)c2cc(NC(=O)CCCCCC(=O)Nc3ccccc3N)ccc2O1`, for which the cytotoxicity call in the assay on HSkMC and in the assay on HepG2 was “inactive” in each case. Further, the growth inhibition call with S. aureus RN4220 is “inactive”.

On to `Cn1ncc2c(=O)nc[nH]c21`, for which the cytotoxicity call in the assay on HSkMC and with HepG2 was “inactive” in each case. Besides, the growth inhibition call in the assay on S. aureus RN4220 is “inactive”.

For the molecule `CN(C)C[C@@]12COC[C@H]1CN(C(=O)N(C)C)C2`, the cytotoxicity call with HSkMC and with HepG2 was “inactive” in each case. For the same molecule, the growth inhibition call in the assay on S. aureus RN4220 was “inactive”.

In the case of `C[C@@H]1CCCCO[C@@H](CN(C)Cc2ccc3c(c2)OCO3)[C@H](C)CN([C@H](C)CO)C(=O)c2cc(NC(=O)Nc3ccc(C(F)(F)F)cc3)ccc2O1`, the cytotoxicity call in the assay on HSkMC (human skeletal muscle cells) and with HepG2 was “active” each time. Besides, in the assay with S. aureus RN4220, the growth inhibition call is “inactive”.
